According to the RNAGym collection of RNA variant scans (doi:10.1093/nar/gkz1192):
Read counts are not given, so values of variants with three or more changes are uncertain.

B1: CPEB3 Ribozyme (parent)
chain: UAACAGGGGGCCACAGCAGAAGCGUUCACGUCGCAGCCCCUGUCAGAUUCUGGUGAAUCUGCGAAUUCUGCUGUAUAUCUC

Variants of: B1
Assay: self-cleavage, relative activity (ratio to wild type); higher = more cleavage; in vitro, sequencing
In short: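 Relative activity compares each variant's cleaved/total read fraction with that of the unmutated ribozyme. To get these fractions, barcoded CPEB3 ribozyme libraries from rounds of error-prone PCR were transcribed with T7 RNA polymerase for 5 hours at 37°C and then given 15 min of DNase I treatment before EDTA was added. The RNAs were reverse transcribed with template switching and sequenced on Illumina, and DNA sequencing linked barcodes to variants. A minimum of 5 reads applied, and three batches were averaged.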

Row | Variant | self-cleavage
1 | U1C U60A U69A U72C | 0.19
2 | U1C U60A U72C | 0.39
3 | U1C U60C A65U | 0.2
4 | U1C U60C U69A | 0.49
5 | U1C U66C U72C | 0.34
6 | U1C U66C U80C | 0.46
7 | U1C U67C A77G | 0.29
8 | U1C U67C U69C U78C | 0.13
9 | U1C U67G U72C U74A | 0.18
10 | U1C U69C C81U | 0.51
11 | U1C U69C U72A U80C | 0.48
12 | U1C U72G A77C | 0.38
13 | U1G A2G C14A A18G U66C | 0.03
14 | U1G A2G C38U C40U U72G U76A | 0.3
15 | U1G A2G U54A U66C U78A | 0.32
16 | U1G A2U A18G U54C U69C A75G | 0.91
17 | U1G A2U U60A U76C | 0.22
18 | U1G A3U A5U A21G U25C A56G | 0.21
19 | U1G A5G U49C U74C | 0.54
20 | U1G A5U A20G C29U U76C A77G | 0.55
21 | U1G A13U A21G A28G A45C U51C | 0.04
22 | U1G A15G U26C | 0.46
23 | U1G A18U A64G U78C | 0.18
24 | U1G A18U C50U | 0.37

Row | Variant | self-cleavage
25 | U1G A20G A21G | 0.16
26 | U1G A20G U74C U80C | 1.09
27 | U1G A21G U60C A77G | 0.35
28 | U1G A47U U69A | 0.07
29 | U1G C12U A18G C38U | 0.67
30 | U1G C14U A15U C32U U67C | 0.21
31 | U1G C23U A28G A64G U80C | 0.14
32 | U1G C23U G36A U54C U60C | 0.17
33 | U1G C29U U31A A65G U67C | 0.2
34 | U1G C39A A57C | 0.05
35 | U1G C39G A45U U51C U58C U69A | 0.04
36 | U1G G6U U43C U49G A57G | 0.53
37 | U1G G8A G30C G52C U69C | 0.04
38 | U1G G16A U43A C44A A45G | 0.42
39 | U1G U25C U26C G30A U49C | 0.06
40 | U1G U25C U26C G30A U67A | 0.22
41 | U1G U25C U31G G36A U60C U69A G73A | 0.06
42 | U1G U26C U31A U43C U49A U54A | 0.07
43 | U1G U41A U51C A75U | 0.38
44 | U1G U48C A65G A77C | 0.2
45 | U1G U49C A65G | 0.26
46 | A2C A3G G7C U26C A75C | 0.75
47 | A2C A3G G19U A20G U26A U43G U51A | 0.06
48 | A2C A3G G19U A20G U43A U69A | 0.64

Row | Variant | self-cleavage
49 | A2C A5G G7A C34A | 0.33
50 | A2C A5G U66C U74C | 0.55
51 | A2C A5U A13U C68U | 0.57
52 | A2C A15G C29A | 0.46
53 | A2C A15U U41C U43A A65G U66C U80C | 0.07
54 | A2C A15U U80A | 0.84
55 | A2C A20G U69A | 0.28
56 | A2C A21G U41A U49C U54C U80C | 0.07
57 | A2C A21G U54C A57G U58C | 0.14
58 | A2C A35U U69C U78C | 0.31
59 | A2C A56C G63U U80C | 0.5
60 | A2C C11G U25C U48C | 0.08
61 | A2C C14A A28C G46A U49C G53A U72C | 0.05
62 | A2C C17U A18G A57G | 0.17
63 | A2C C38G U49C U69A | 0.16
64 | A2C G6A A56U U60A | 0.27
65 | A2C G9A C44U U48C A56U A77G | 0.06
66 | A2C G10C G52A U60A | 0.22
67 | A2C G10U A18G U26C U41C A45C U58C | 0.04
68 | A2C U25A U60A | 0.08
69 | A2C U25C A47G U67C | 0.12
70 | A2C U31A G70U | 0.14
71 | A2C U48C U78C | 0.25
72 | A2C U58G U72C C79A | 0.32

Row | Variant | self-cleavage
73 | A2C U60C A64G | 0.21
74 | A2C U66C U72C | 0.19
75 | A2G A3C A5U U41C A56G | 0.83
76 | A2G A3G A5C U80A | 1.06
77 | A2G A3G A5U U26C U48A U80A | 0.14
78 | A2G A3G A13C A15G U25A A64G U80C | 0.81
79 | A2G A3G A15C | 0.31
80 | A2G A3G A15G A20U A47U U80C | 0.1
81 | A2G A3G A15G A64U | 0.57
82 | A2G A3G A15G G19U A65U | 0.11
83 | A2G A3G A18G U72C | 0.87
84 | A2G A3G A18U U48C | 0.12
85 | A2G A3G A20G C27G A45C | 0.15
86 | A2G A3G A20G U60C U69C | 0.49
87 | A2G A3G C11U | 0.82
88 | A2G A3G C12U C23U G73C U76C | 0.84
89 | A2G A3G G6C C12U U41A C81U | 0.26
90 | A2G A3G U26C G30A U60C C68A U78A | 0.21
91 | A2G A3G U31A | 0.7
92 | A2G A3G U31C U51C A56G | 0.51
93 | A2G A3G U48C | 0.93
94 | A2G A3G U66C A75G U80A | 0.13
95 | A2G A3G U72G | 0.66
96 | A2G A3G U78A | 0.75

Row | Variant | self-cleavage
97 | A2G A3G U80A | 1.09
98 | A2G A3U A18U A20C U67C | 0.11
99 | A2G A3U A20G A21U A45G | 0.17
100 | A2G A3U A28C | 0.45
101 | A2G A3U G7A A13U A15C | 0.13
102 | A2G A3U U41A A45G U49C A64G U76C | 0.07
103 | A2G A3U U74A U78C | 1.25
104 | A2G A5C C29G G30A C44A A65G U78C | 0.15
105 | A2G A5C U54A A56G U67C U74A | 0.18
106 | A2G A5C U76A | 0.74
107 | A2G A5G A13G A15C U25C | 0.38
108 | A2G A5G A13G U25C G30A A65G U69A | 0.05
109 | A2G A5G A15G G24C U41G | 0.09
110 | A2G A5G A15G U31A U43A C44U A64G | 0.08
111 | A2G A5G A18G A47G A57G U69A | 0.17
112 | A2G A5G A18G U41C U48A A57G U58A | 0.48
113 | A2G A5G A18U U26C A28G U58A | 0.47
114 | A2G A5G A20U U66C | 0.35
115 | A2G A5G A21G | 0.09
116 | A2G A5G A35G U41A U43C A56U | 0.18
117 | A2G A5G A45G U51A A64G U72C | 0.3
118 | A2G A5G A64G | 0.45
119 | A2G A5G A64G U74A | 1.16
120 | A2G A5G A65U | 0.19

Row | Variant | self-cleavage
121 | A2G A5G C11U U66C | 0.18
122 | A2G A5G C12U U25C U51G U60A U80C | 0.08
123 | A2G A5G C23U U49C | 0.52
124 | A2G A5G G7U G10A | 0.44
125 | A2G A5G G8A G10A A64G A77U | 0.09
126 | A2G A5G G24U U26A A65G U78C | 0.11
127 | A2G A5G U25A A47U | 0.5
128 | A2G A5G U25C C39U U43A A56G | 0.09
129 | A2G A5G U26A G36A U48C A56C U72G | 0.08
130 | A2G A5G U26A U67C U80G | 0.69
131 | A2G A5G U48C U72G | 0.08
132 | A2G A5G U51A A57G A64G | 0.29
133 | A2G A5G U54C A56U U80C | 0.41
134 | A2G A5U A13G | 0.23
135 | A2G A5U A18G A64G | 0.51
136 | A2G A5U A18U A21G C23A U41C U74A | 0.7
137 | A2G A5U A18U A57G G63C A64U | 0.19
138 | A2G A5U A18U C23U U54A A56G | 0.15
139 | A2G A5U A18U U26C G46A A75U | 0.24
140 | A2G A5U A18U U48C A64G U67C U69A | 0.08
141 | A2G A5U A28G | 0.63
142 | A2G A5U A28G C29G A64U | 0.23
143 | A2G A5U A57G A75G | 0.37
144 | A2G A5U C12G C40A U51A U69C | 0.14

Row | Variant | self-cleavage
145 | A2G A5U C34U U60A | 0.1
146 | A2G A5U U26G A57G U72C | 0.57
147 | A2G A5U U54C U67A | 0.57
148 | A2G A13C A56C | 0.42
149 | A2G A13G A15C | 0.49
150 | A2G A13G A15C C23U A35G A45G U67C | 0.08
151 | A2G A13G A15G | 0.11
152 | A2G A13G A21G U25C A45U U51C U76C | 0.11
153 | A2G A13G A28G C37G A56U C59A | 0.07
154 | A2G A13G A35G U67C | 0.05
155 | A2G A13U A15U C23U | 0.3
156 | A2G A13U A18G A64G U74C | 0.29
157 | A2G A13U A35G G63C | 1.14
158 | A2G A13U A56G U72C | 0.5
159 | A2G A13U A57G | 0.24
160 | A2G A13U C39U A45G U54G U67A | 0.03
161 | A2G A13U C59U U66C U72C | 0.24
162 | A2G A13U G53C U72C G73A | 0.69
163 | A2G A13U U58C U60C | 0.18
164 | A2G A13U U60C | 0.1
165 | A2G A13U U69C A77U | 0.55
166 | A2G A15C U31C U41C A45U U66C | 0.4
167 | A2G A15G A20G A45G | 0.51
